# This is one part of the list. One pool of 16,384 single-stranded DNAs met each Rep nickase domain in vitro (1 h at 37 °C, 3 µM enzyme); the outer parts of the 90-letter strands are left off. Uncut reads are compared with the no-enzyme pool on a log2 scale; uncut sequences lie near 0, cut ones below; no hit call is given. Because reads are shares of a total, they shift together; uncut strands gain when others are lost, and binding without cutting may add a little.
# Tested on: T1, Rep nickase domain of Muscovy duck circovirus
# T1 sequence (Rep 1-111, printed without the tag): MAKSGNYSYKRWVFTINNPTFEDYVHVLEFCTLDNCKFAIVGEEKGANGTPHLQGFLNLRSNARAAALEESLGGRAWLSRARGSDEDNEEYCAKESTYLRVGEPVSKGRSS
# Experiment: uncleaved DNA left, log2 of reads against the no-enzyme library (log2 ratio); higher = less cleavage (more negative = more Rep cleavage of the k-mer); sequences stand for … in CTCGTCCG…ACCGGAGA
# Experimental: (§1)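 A pool of 90-nt single-stranded DNAs with seven random bases just before the constant AC of the nick site (name = the seven bases) was cut by 3 µM recombinant His6-SUMO-tagged Rep nickase domain (300 nM DNA, 50 mM HEPES pH 8.0, 50 mM NaCl, 1 mM MnCl2, 1 h, 37 °C, three replicates). Uncut DNA was amplified and sequenced.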
row,Sequence,uncleaved DNA left (log2)
1,TGGAGTG,-0.0503
2,TGCAACC,-0.103
3,TCGCTTG,0.107
4,CAATTAA,-0.144
5,TCATAAG,0.021
6,TTATTTA,-0.198
7,AAGCGAG,-0.0208
8,TTCCTAT,0.176
9,GGCTGGG,-0.0123
10,CACAAAG,-0.0516
11,CGTTGCC,-0.0217
12,GACAAGC,-0.0929
13,CTCAGTT,-0.13
14,TATAAGT,0.0899
15,GCCCGAA,0.114
16,AATTAGA,-0.207
17,CGATTTT,-2.83
18,GTGTTTG,-0.0209
19,ACAAAAA,-0.00133
20,GTTTCCT,0.0174

row,Sequence,uncleaved DNA left (log2)
1,ACAAGAT,0.0908
2,ACATGAT,-0.368
3,AGCGCAT,0.108
4,ACGTGAC,-0.0203
5,AGATCTT,-2.56
6,GAATCCC,0.0912
7,CCTGTCG,-0.113
8,GCCAGGG,0.0354
9,CTCATAC,0.072
10,AGACGGC,-0.0105
11,AACCGAG,-0.000993
12,CCCCAAC,-0.251
13,GATCTCA,0.0384
14,GGTCCTA,0.00835
15,ATTCCGT,0.0441
16,GTGTGAT,-0.0807
17,CATATCA,0.0176
18,CGTATTC,-0.037
19,TTATGGT,-0.624
20,TATGGAA,0.249

# Tested on: T2, Rep nickase domain of banana bunchy top virus
# T2 sequence (Rep 1-94, printed without the tag): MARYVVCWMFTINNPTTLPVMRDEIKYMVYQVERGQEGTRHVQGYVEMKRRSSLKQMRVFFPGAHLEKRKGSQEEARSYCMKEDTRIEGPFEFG
# Experiment: as above
# Experimental: as §1
row,Sequence,uncleaved DNA left (log2)
1,TGGAGTG,-0.0988
2,TGCAACC,0.11
3,TCGCTTG,-0.0305
4,CAATTAA,-0.0518
5,TCATAAG,0.0279
6,TTATTTA,0.0584
7,AAGCGAG,-0.0213
8,TTCCTAT,0.131
9,GGCTGGG,-0.0761
10,CACAAAG,0.0943
11,CGTTGCC,-0.0396
12,GACAAGC,0.0397
13,CTCAGTT,-0.19
14,TATAAGT,-0.0678
15,GCCCGAA,0.0716
16,AATTAGA,-0.0907
17,CGATTTT,-0.0998
18,GTGTTTG,0.0143
19,ACAAAAA,-0.0106
20,GTTTCCT,0.0349

row,Sequence,uncleaved DNA left (log2)
1,ACAAGAT,0.0575
2,ACATGAT,0.0217
3,AGCGCAT,0.196
4,ACGTGAC,-0.0967
5,AGATCTT,-0.0867
6,GAATCCC,-0.0116
7,CCTGTCG,-0.124
8,GCCAGGG,0.0181
9,CTCATAC,-0.0481
10,AGACGGC,0.0718
11,AACCGAG,0.0386
12,CCCCAAC,-0.156
13,GATCTCA,0.145
14,GGTCCTA,0.144
15,ATTCCGT,-0.011
16,GTGTGAT,-0.042
17,CATATCA,0.0148
18,CGTATTC,-0.164
19,TTATGGT,0.0697
20,TATGGAA,0.0891

# Tested on: T3, Rep nickase domain of cabbage leaf curl virus
# T3 sequence (Rep 1-116, printed without the tag): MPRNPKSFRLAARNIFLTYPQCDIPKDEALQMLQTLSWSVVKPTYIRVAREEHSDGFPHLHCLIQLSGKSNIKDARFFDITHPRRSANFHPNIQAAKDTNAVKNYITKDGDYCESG
# Experiment: as above
# Experimental: as §1
row,Sequence,uncleaved DNA left (log2)
1,TGGAGTG,-0.354
2,TGCAACC,0.231
3,TCGCTTG,-0.115
4,CAATTAA,-0.36
5,TCATAAG,-0.69
6,TTATTTA,0.145
7,AAGCGAG,0.00443
8,TTCCTAT,0.384
9,GGCTGGG,0.0127
10,CACAAAG,-0.778
11,CGTTGCC,-0.934
12,GACAAGC,0.114
13,CTCAGTT,-0.347
14,TATAAGT,0.0118
15,GCCCGAA,0.363
16,AATTAGA,-0.277
17,CGATTTT,-0.0125
18,GTGTTTG,0.012
19,ACAAAAA,-0.0151
20,GTTTCCT,0.448

row,Sequence,uncleaved DNA left (log2)
1,ACAAGAT,-0.072
2,ACATGAT,-0.231
3,AGCGCAT,0.163
4,ACGTGAC,-0.105
5,AGATCTT,0.361
6,GAATCCC,-1.45
7,CCTGTCG,-0.782
8,GCCAGGG,0.00788
9,CTCATAC,-0.248
10,AGACGGC,0.329
11,AACCGAG,0.585
12,CCCCAAC,-0.275
13,GATCTCA,0.241
14,GGTCCTA,0.422
15,ATTCCGT,-0.236
16,GTGTGAT,0.229
17,CATATCA,0.251
18,CGTATTC,0.00229
19,TTATGGT,-1.84
20,TATGGAA,0.414

# Tested on: T4, Rep nickase domain of chickpea chlorotic dwarf virus
# T4 sequence (Rep 1-124, printed without the tag): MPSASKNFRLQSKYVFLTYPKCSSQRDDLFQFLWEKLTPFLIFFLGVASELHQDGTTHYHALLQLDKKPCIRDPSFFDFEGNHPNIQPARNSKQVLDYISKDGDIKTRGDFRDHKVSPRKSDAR
# Experiment: as above
# Experimental: as §1
row,Sequence,uncleaved DNA left (log2)
1,TGGAGTG,-0.262
2,TGCAACC,-0.206
3,TCGCTTG,-0.508
4,CAATTAA,-1.06
5,TCATAAG,-0.116
6,TTATTTA,-0.718
7,AAGCGAG,0.391
8,TTCCTAT,-0.629
9,GGCTGGG,0.225
10,CACAAAG,-0.152
11,CGTTGCC,-0.577
12,GACAAGC,0.537
13,CTCAGTT,-1.82
14,TATAAGT,-1.28
15,GCCCGAA,0.747
16,AATTAGA,-0.61
17,CGATTTT,-1.91
18,GTGTTTG,0.295
19,ACAAAAA,0.0771
20,GTTTCCT,0.618

row,Sequence,uncleaved DNA left (log2)
1,ACAAGAT,-0.00215
2,ACATGAT,-0.434
3,AGCGCAT,0.569
4,ACGTGAC,0.263
5,AGATCTT,-0.396
6,GAATCCC,-1.43
7,CCTGTCG,-0.268
8,GCCAGGG,0.248
9,CTCATAC,-0.991
10,AGACGGC,0.692
11,AACCGAG,1.31
12,CCCCAAC,-1.62
13,GATCTCA,0.141
14,GGTCCTA,1.1
15,ATTCCGT,-0.731
16,GTGTGAT,0.931
17,CATATCA,-0.589
18,CGTATTC,-0.0993
19,TTATGGT,-1.5
20,TATGGAA,0.963

# Tested on: T5, Rep nickase domain of faba bean necrotic yellows virus
# T5 sequence (Rep 1-98, printed without the tag): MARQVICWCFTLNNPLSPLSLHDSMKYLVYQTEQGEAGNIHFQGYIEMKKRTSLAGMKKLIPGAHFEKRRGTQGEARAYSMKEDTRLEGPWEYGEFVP
# Experiment: as above
# Experimental: as §1
row,Sequence,uncleaved DNA left (log2)
1,TGGAGTG,-0.182
2,TGCAACC,-0.0912
3,TCGCTTG,0.0719
4,CAATTAA,0.034
5,TCATAAG,0.109
6,TTATTTA,-0.0184
7,AAGCGAG,-0.0102
8,TTCCTAT,0.143
9,GGCTGGG,0.0559
10,CACAAAG,0.0963
11,CGTTGCC,0.00535
12,GACAAGC,0.000908
13,CTCAGTT,-0.0484
14,TATAAGT,0.0688
15,GCCCGAA,0.0628
16,AATTAGA,0.0281
17,CGATTTT,0.0686
18,GTGTTTG,-0.0389
19,ACAAAAA,0.0593
20,GTTTCCT,0.0649

row,Sequence,uncleaved DNA left (log2)
1,ACAAGAT,0.0881
2,ACATGAT,0.0377
3,AGCGCAT,-0.0381
4,ACGTGAC,-0.0646
5,AGATCTT,-0.0195
6,GAATCCC,0.033
7,CCTGTCG,0.0514
8,GCCAGGG,-0.0628
9,CTCATAC,-0.121
10,AGACGGC,0.108
11,AACCGAG,-0.0142
12,CCCCAAC,-0.23
13,GATCTCA,-0.00887
14,GGTCCTA,-0.00913
15,ATTCCGT,0.0216
16,GTGTGAT,-0.111
17,CATATCA,0.0473
18,CGTATTC,-0.0895
19,TTATGGT,0.144
20,TATGGAA,0.192
